Experimental findings from US20170081412A1 (MITSUBISHI TANABE PHARMA, published 2017) are described below.

Assay [1] addresses T1, recombinant human IL-17A (human, UniProt Q16552 24-155, limits assumed). Put plainly: cell-based or functional assay.
Assay [2] addresses T2, recombinant human IL-6R (human, UniProt P08887 20-365).
T2 construct: The sandwich ELISA used a His-tagged form; also called soluble IL-6R; His-tagged human IL-6R
T2 sequence: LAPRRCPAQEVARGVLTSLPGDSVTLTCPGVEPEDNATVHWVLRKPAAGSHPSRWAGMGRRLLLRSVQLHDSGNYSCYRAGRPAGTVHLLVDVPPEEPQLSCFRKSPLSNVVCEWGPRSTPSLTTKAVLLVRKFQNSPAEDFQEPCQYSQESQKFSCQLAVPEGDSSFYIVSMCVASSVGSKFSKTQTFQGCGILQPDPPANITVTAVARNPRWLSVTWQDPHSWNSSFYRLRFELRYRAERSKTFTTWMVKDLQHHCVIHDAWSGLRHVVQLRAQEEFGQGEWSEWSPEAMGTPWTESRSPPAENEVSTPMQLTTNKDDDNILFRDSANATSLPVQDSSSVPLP
Put plainly: SPR, binder captured by anti-human antibody on GLM chip, IL-6R as analyte; average of 2 experiments. The source says: (§1) To determine the affinity and kinetic parameters of FynomAb binding to human IL-17A and human IL-6R, an anti-human antibody was amine coupled to a GLM chip.

Assay [3] deals with T1, recombinant human IL-17A. Put plainly: SPR, binder captured by anti-human antibody on GLM chip, IL-17A as analyte; average of 2 experiments.
Source text: as §1

Assay [4] deals with T3, human IL-6R on the surface of HEK Blue IL-6 cells (human, UniProt P08887 20-468).
T3 construct: HEK Blue IL-6 cells (Invivogen); also called cell surface IL-6R; HEK-Blue-IL6 cells (IL6R+)
T3 sequence: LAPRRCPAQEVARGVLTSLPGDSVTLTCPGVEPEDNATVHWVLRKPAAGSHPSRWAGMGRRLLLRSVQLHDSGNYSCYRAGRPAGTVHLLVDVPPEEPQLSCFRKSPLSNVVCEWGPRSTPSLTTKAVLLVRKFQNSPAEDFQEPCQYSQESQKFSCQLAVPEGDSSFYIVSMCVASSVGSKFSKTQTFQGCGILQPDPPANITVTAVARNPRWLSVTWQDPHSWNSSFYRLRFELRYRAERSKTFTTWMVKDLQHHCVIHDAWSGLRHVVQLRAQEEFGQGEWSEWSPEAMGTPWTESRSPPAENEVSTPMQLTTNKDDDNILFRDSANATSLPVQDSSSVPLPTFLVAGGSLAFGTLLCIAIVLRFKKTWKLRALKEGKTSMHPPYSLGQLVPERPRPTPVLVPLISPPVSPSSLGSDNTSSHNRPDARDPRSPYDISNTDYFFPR
Nature of the assay: flow cytometry: HEK-Blue IL-6 cells (IL-6R+), drug titrated about 0.005-300 nM, detected with anti-human IgG-Alexa488. (A flow cytometer gives signals particle by particle.)

The target of assay [5] is T2, recombinant human IL-6R. Put plainly: SPR, binder captured by anti-human antibody on GLM chip, IL-6R as analyte; average of 2 experiments; column head prints nM, value taken as M.
Source text: as §1

Assay [6] concerns the target T1, recombinant human IL-17A. Put plainly: SPR, binder captured by anti-human antibody on GLM chip, IL-17A as analyte; average of 2 experiments; column head prints nM, value taken as M.
Source text: as §1

The target of assay [7] is T1, recombinant human IL-17A. Nature of the assay: dual-binding sandwich ELISA: human IL-17A coated, FynomAb titrated 50-0.0032 nM in PBS (day 0), His-tagged human IL-6R added, anti-His-HRP.
Assay [8] addresses T2, recombinant human IL-6R. Nature of the assay: SPR (representative sensorgram with fit): antibody captured on an amine-coupled anti-human antibody (GLM chip), recombinant human IL-6R flowed as analyte.
Source text: as §1

Assay [9] addresses T1, recombinant human IL-17A. Put plainly: SPR (representative sensorgram with fit): antibody captured on an amine-coupled anti-human antibody (GLM chip), recombinant human IL-17A flowed as analyte.
Source text: as §1

Assay [10] has as its target T3, human IL-6R on the surface of HEK Blue …. Nature of the assay: flow cytometry, simultaneous binding: drug titrated on HEK-Blue IL-6 cells (IL-6R+), cell-bound drug detected with biotinylated IL-17A and streptavidin-APC.
Assay [11] has the same target. Nature of the assay: flow cytometry: HEK-Blue IL-6 cells (IL-6R+), drug titrated about 0.005-300 nM, detected with anti-human IgG-Alexa488. The source holds these as a separate data set.
Assay [12] has as its target T1, recombinant human IL-17A. Nature of the assay: dual-binding sandwich ELISA: human IL-17A coated, FynomAb titrated 50-0.0032 nM in PBS (day 0), His-tagged human IL-6R added, anti-His-HRP. The source holds these as a separate data set.
Assay [13] has as its target T3, human IL-6R on the surface of HEK Blue …. Nature of the assay: flow cytometry, simultaneous binding: drug titrated on HEK-Blue IL-6 cells (IL-6R+), cell-bound drug detected with biotinylated IL-17A and streptavidin-APC. The source holds these as a separate data set.
The target of assay [14] is T2, recombinant human IL-6R. Nature of the assay: SPR, binder captured by anti-human antibody on GLM chip, IL-6R as analyte; average of 4 experiments.
Source text: as §1
(In SPR one partner is held on a chip, and binding of the other changes the refractive index at the surface.)

For assay [15], the target named is T1, recombinant human IL-17A. Nature of the assay: SPR, binder captured by anti-human antibody on GLM chip, IL-17A as analyte; average of 5 experiments.
Source text: as §1

For assay [16], the target named is T2, recombinant human IL-6R. Put plainly: SPR, binder captured by anti-human antibody on GLM chip, IL-6R as analyte; average of 4 experiments; column head prints nM, value taken as M.
Source text: as §1

Assay [17] addresses T1, recombinant human IL-17A. Put plainly: SPR, binder captured by anti-human antibody on GLM chip, IL-17A as analyte; average of 5 experiments; column head prints nM, value taken as M.
Source text: as §1

Assay [18] concerns the target T1, recombinant human IL-17A. Put plainly: dual-binding sandwich ELISA: human IL-17A coated, FynomAb titrated 50-0.0032 nM in PBS (day 0), His-tagged human IL-6R added, anti-His-HRP. This is another data set of the same source. (In general: ELISA stands for enzyme-linked immunosorbent assay.)

Read-outs that look alike come from different tables or passages of the source.

T1 sequence (Q16552 24-155 limits assumed): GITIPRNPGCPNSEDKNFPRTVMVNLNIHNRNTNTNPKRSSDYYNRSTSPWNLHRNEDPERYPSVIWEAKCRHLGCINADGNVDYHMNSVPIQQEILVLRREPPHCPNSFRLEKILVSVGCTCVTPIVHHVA

B1: COVA807 (bispecific antibody, human IgG1, kappa)
heavy: QVQLQESGPGLVRPSQTLSLTCTVSGYSITSDHAWSWVRQPPGRGLEWIGYISYSGITTYNPSLKSRVTMLRDTSKNQFSLRLSSVTAADTAVYYCARSLARTTAMDYWGQGSLVTVSSASTKGPSVFPLAPSSKSTSGGTAALGCLVKDYFPEPVTVSWNSGALTSGVHTFPAVLQSSGLYSLSSVVTVPSSSLGTQTYICNVNHKPSNTKVDKKV[sequence of human IgG1 Fc omitted]GGGSGGGGSGGGGSGVTLFVALYDYSSRGVLDLSFHKGEKFQILSTHEYEDWWEARSLTTGETGYIPSNYVAPVDSIQ
light: DIQMTQSPSSLSASVGDRVTITCRASQDISSYLNWYQQKPGKAPKLLIYYTSRLHSGVPSRFSGSGSGTDFTFTISSLQPEDIATYYCQQGNTLPYTFGQGTKVEIKRTVAAPSVFIFPPSDEQLKSGTASVVCLLNNFYPREAKVQWKVDNALQSGNSQESVTEQDSKDSTYSLSSTLTLSKADYEKHKVYACEVTHQGLSSPVTKSFNRGEC
notes: made in CHO cells; also called 807 in-house
As a reminder, the koff is a measure of how fast the partners let go of each other. Usually kon stands for a measure of how fast the partners come together. By EC50 (read off the curve) is commonly meant the concentration that produces a half-maximal response. In general, Kd refers to the concentration at which binding is half-saturated. With B1, the “LogIC50, IL-17A-induced GROα release by HT-29 cells, FIG. 8D (stable CHO pool, mouse PK lot)” value in the assay with recombinant human IL-17A [1] was 0.644. Moreover, the off-rate (koff) with recombinant human IL-6R [2] came to 0.000189 s⁻¹; with recombinant human IL-17A [3], 9.66e-05 s⁻¹; with recombinant human IL-6R [8] it was 0.000197 s⁻¹; with recombinant human IL-17A [9], 0.000108 s⁻¹. The kon in the assay with recombinant human IL-6R [2] worked out at 692000 M⁻¹ s⁻¹; with recombinant human IL-17A [3], 4.34e+06 M⁻¹ s⁻¹; with recombinant human IL-6R [8], 476000 M⁻¹ s⁻¹; in the assay with recombinant human IL-17A [9], 4.84e+06 M⁻¹ s⁻¹. The concentration for a half-maximal effect (EC50 (read off the curve)) was approximately 1 nM in assay [4], approximately 2 nM with recombinant human IL-17A [7] and approximately 1 nM in [10]. Moreover, the Kd with recombinant human IL-6R [5] was found to be 0.307 nM; with recombinant human IL-17A [6], 0.0223 nM; with recombinant human IL-6R [8], 0.415 nM; in the assay with recombinant human IL-17A [9] it was 0.0223 nM.

B2: COVA805 (bispecific antibody, human IgG1, kappa)
heavy: QVQLQESGPGLVRPSQTLSLTCTVSGYSITSDHAWSWVRQPPGRGLEWIGYISYSGITTYNPSLKSRVTMLRDTSKNQFSLRLSSVTAADTAVYYCARSLARTTAMDYWGQGSLVTVSSASTKGPSVFPLAPSSKSTSGGTAALGCLVKDYFPEPVTVSWNSGALTSGVHTFPAVLQSSGLYSLSSVVTVPSSSLGTQTYICNVNHKPSNTKVDKKV[sequence of human IgG1 Fc omitted]GGGSGGGGSGGGGSGVTLFVALYDYESVSWSDLSFHKGEKFQILSTHEYEDWWEARSLTTGETGYIPSNYVAPVDSIQ
light: B1 light
notes: made in CHO cells; also called 805 in-house
Turning to B2, the “LogIC50, IL-17A-induced GROα release by HT-29 cells, FIG. 8C (stable CHO pool, mouse PK lot)” value with recombinant human IL-17A [1] was 0.28. The off-rate (koff) stood at 0.000178 s⁻¹ with recombinant human IL-6R [2], 0.000581 s⁻¹ with recombinant human IL-17A [3], 0.000198 s⁻¹ with recombinant human IL-6R [8] and 0.00114 s⁻¹ with recombinant human IL-17A [9]. Also, the association rate constant (kon) in the assay with recombinant human IL-6R [2] came out at 613000 M⁻¹ s⁻¹; with recombinant human IL-17A [3], 3.53e+06 M⁻¹ s⁻¹; with recombinant human IL-6R [8], 474000 M⁻¹ s⁻¹; with recombinant human IL-17A [9] it was 4.09e+06 M⁻¹ s⁻¹. The “EC50 (read off the curve)” value is approximately 0.7 nM in assay [11], approximately 2 nM in the assay with recombinant human IL-17A [12] and approximately 0.6 nM in assay [13]. Moreover, the Kd with recombinant human IL-6R [5] was found to be 0.314 nM; with recombinant human IL-17A [6] it was 0.143 nM; with recombinant human IL-6R [8], 0.419 nM; with recombinant human IL-17A [9], 0.278 nM.

B3: COVA808 (bispecific antibody, human IgG1, kappa)
heavy: QVQLQESGPGLVRPSQTLSLTCTVSGYSITSDHAWSWVRQPPGRGLEWIGYISYSGITTYNPSLKSRVTMLRDTSKNQFSLRLSSVTAADTAVYYCARSLARTTAMDYWGQGSLVTVSS[sequence of human IgG1 constant region omitted]
light: DIQMTQSPSSLSASVGDRVTITCRASQDISSYLNWYQQKPGKAPKLLIYYTSRLHSGVPSRFSGSGSGTDFTFTISSLQPEDIATYYCQQGNTLPYTFGQGTKVEIKRTVAAPSVFIFPPSDEQLKSGTASVVCLLNNFYPREAKVQWKVDNALQSGNSQESVTEQDSKDSTYSLSSTLTLSKADYEKHKVYACEVTHQGLSSPVTKSFNRGECGGGGSGGGGSGGGGSGVTLFVALYDYSSRGVLDLSFHKGEKFQILSTHEYEDWWEARSLTTGETGYIPSNYVAPVDSIQ
notes: made in CHO cells
As for B3, the “LogIC50, IL-17A-induced GROα release by HT-29 cells, FIG. 8D (stable CHO pool, mouse PK lot)” value in the assay with recombinant human IL-17A [1] came out at 0.406. Besides, the values for the dissociation rate constant (koff) in the assay with recombinant human IL-6R [14], with recombinant human IL-17A [15] and with recombinant human IL-17A [9] were 0.00017 s⁻¹, 7.97e-05 s⁻¹ and 0.00013 s⁻¹, respectively. For the same molecule, the figures for the kon in the assay with recombinant human IL-6R [14], with recombinant human IL-17A [15] and with recombinant human IL-17A [9] were 425000 M⁻¹ s⁻¹, 2.95e+06 M⁻¹ s⁻¹ and 2.26e+06 M⁻¹ s⁻¹, respectively. Also, the dissociation constant (Kd) with recombinant human IL-6R [16] stood at 0.546 nM; with recombinant human IL-17A [17] it was 0.0311 nM; with recombinant human IL-17A [9] it was 0.0575 nM. Also, the 50% effective concentration (EC50 (read off the curve)) in the assay with recombinant human IL-17A [18] is approximately 2 nM.
